# In patent EP4501942A1, “PEPTIDOMIMETICS WITH ANTIVIRAL ACTIVITY” (priority 2023, dated 2025):
# Tested on: hepatitis C virus
# Experiment: microbe, parasite or virus in culture
# Text: To further characterize the antiviral spectrum of the compounds, we tested their ability to interfere with hepatitis C virus infection, using a trans-complemented infectious particle reporter system (HCVtcp), which mimics a single cycle infection experiment and enables evaluating overall infection efficiency using a luciferase readout (10.1128/JVI.00118-08). Glecaprevir, a clinically approved HCV NS3/4A protease inhibitor was used as control to testify for the ability of the assay to reveal viral protease inhibitors.
SMILES,EC50 [µM],EC90 [µM]
CC(C)[C@H](NC(=O)OC(C)(C)C)C(=O)N1C[C@@H](C)[C@@]1(Cc1ccccc1)C(=O)N[C@H](C#N)C[C@@H]1CCNC1=O [Example 6],> 50,> 50
C[C@@H]1CN(C(=O)[C@@H](NC(=O)OC(C)(C)C)C(C)(C)C)[C@]1(Cc1ccccc1)C(=O)N[C@H](C#N)C[C@@H]1CCNC1=O [Example 14],> 50,> 50
"CCCC[C@@H](C#N)NC(=O)[C@]1(CC(C)C)[C@H](C)CN1C(=O)[C@@H](NC(=O)NC(C)(C)C)C(C)(C)C [Example 25, ^tBuNHCO-L-Tbg-(αS,β'R)-Azl-NH-[(1S)-1-cyano]pentane]",42,> 50
"C[C@@H]1CN(C(=O)[C@@H](NC(=O)OC(C)(C)C)C(C)(C)C)[C@]1(Cc1ccccc1)C(=O)N[C@H](C=O)C[C@@H]1CCNC1=O [Example 29, Boc-L-Tbg-(αS,β'R')-Azf-L-Ala(3S-2-oxopyrrolidin-3-yl)-H]",> 50,> 50
"CCCC[C@@H](C#N)NC(=O)[C@]1(CC(C)C)[C@H](C)CN1C(=O)[C@@H](NC(=O)OC(C)(C)C)C(C)(C)C [Example 34, Boc-L-Tbg-(aS,β'R)-Azl-NH-[(1S)-1-cyano]pentane]",45,> 50
CC(C)[C@H](NC(=O)OC(C)(C)C)C(=O)N1C[C@@H](C)[C@@]1(CC1CCCCC1)C(=O)N[C@H](C#N)C[C@@H]1CCNC1=O [Example 36],42,> 50
"CC(C)(C)[C@@H]1NC(=O)O[C@@H]2CCC[C@H]2OC/C=C/C(F)(F)c2nc3ccccc3nc2O[C@@H]2C[C@@H](C(=O)N[C@]3(C(=O)NS(=O)(=O)C4(C)CC4)C[C@H]3C(F)F)N(C2)C1=O [Glecaprevir, reference compound]",< 0.06,< 0.06
